Laboratory results: paper PMC6919601, “Identification of Plasmodium dipeptidyl aminopeptidase allosteric inhibitors by high throughput screening” (PLoS ONE, 2019)
Out of some 110,000 compounds screened, about 230 (0.21%) showed an effect of 50% or more. This is one part of the list.

molecular target: DPAP1 (Plasmodium falciparum, UniProt Q8IIJ9); assay: primary screen, percent inhibition; read by cleavage of a fluorogenic dipeptide substrate; higher = more effect of the substance; set-up: species or system P. falciparum D10 trophozoite lysates; single well
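Note: 30 min substrate incubation versus DMSO and 10 µM JCP410 controls.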

Chain of DPAP1 (Q8IIJ9 whole entry, looked up): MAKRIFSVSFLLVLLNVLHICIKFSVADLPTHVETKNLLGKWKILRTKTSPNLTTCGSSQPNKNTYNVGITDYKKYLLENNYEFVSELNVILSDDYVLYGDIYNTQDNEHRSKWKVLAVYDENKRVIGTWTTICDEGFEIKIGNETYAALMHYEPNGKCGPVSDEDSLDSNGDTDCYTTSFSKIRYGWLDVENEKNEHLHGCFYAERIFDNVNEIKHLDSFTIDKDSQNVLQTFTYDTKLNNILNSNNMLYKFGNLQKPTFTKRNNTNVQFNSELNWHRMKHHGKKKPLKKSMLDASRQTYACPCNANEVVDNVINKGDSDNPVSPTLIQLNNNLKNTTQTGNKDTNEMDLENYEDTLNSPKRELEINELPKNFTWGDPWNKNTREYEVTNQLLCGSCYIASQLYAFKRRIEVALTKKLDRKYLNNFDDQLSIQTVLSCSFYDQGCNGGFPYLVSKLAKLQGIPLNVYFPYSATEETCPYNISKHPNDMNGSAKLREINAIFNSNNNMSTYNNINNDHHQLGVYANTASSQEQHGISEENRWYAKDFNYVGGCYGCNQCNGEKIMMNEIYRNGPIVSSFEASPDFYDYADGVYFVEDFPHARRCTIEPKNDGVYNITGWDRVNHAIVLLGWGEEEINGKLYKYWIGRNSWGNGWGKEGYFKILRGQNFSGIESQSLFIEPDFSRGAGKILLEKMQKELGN

| Structure (SMILES) | % Inhibition @ 10 uM |
| --- | --- |
| C=C(C)Cn1c(SCCc2ccccc2)nc2c1c(=O)[nH]c(=O)n2C | 8.26% |
| O=C(Cn1ncc2c1-c1ccccc1OC2)Nc1cccnc1Cl | 0.981% |
| CC(C)(C)c1ccccc1OCC(=O)NC1CCCC1 | 3.01% |
| O=C1CCC(C(=O)Nc2cccc(Br)c2)N1 (stereo not drawn) | -6.08% |
| Nc1ccc(-c2nc3cc(N)ccc3o2)c(O)c1 | -3.52% |
| Cc1oc(-c2ccccc2)cc1C(N)=O | 2.05% |
| COc1ccc(CNC(=O)c2cnc3ccccn3c2=O)cc1 | 0.0579% |
| CC(C)(O)C#Cc1ccc(C(=O)N2CCC(C(N)=O)(N3CCCCC3)CC2)cc1 | -0.661% |
| OCCN(Cc1ccccc1)Cc1cccc(Br)c1 | -7.93% |
| N=C(NOC(=O)c1ccco1)c1ccccn1 | -3.63% |
| CCN(CC)c1ccc(CN2CCCC(CO)C2)cc1 (stereo not drawn) | 0.472% |
| CS(=O)(=O)N(CC(=O)Nc1cccc(F)c1)Cc1ccccc1 | -7.5% |
| Nc1ncnc2c1ncn2Cc1ccccc1 | 1.25% |
| COCCNC(=O)c1cc2n(n1)C(C(F)(F)F)CC(c1ccc(Br)cc1)N2 (stereo not drawn) | 7.93% |
| CNC(=O)/C(C#N)=C/c1c(Oc2cccc(C)c2C)nc2c(C)cccn2c1=O | -3.23% |
| COc1cccc(CNC2CCCCCCC2)c1OC | -4.04% |
| O=C(CCN1C(=O)C2C3C=CC(C3)C2C1=O)Nc1cccnc1 (stereo not drawn) | -0.551% |
| COc1cccc(NC(=O)CSC2=C(C#N)C(c3ccc(Cl)cc3)CC(=O)N2)c1 (stereo not drawn) | 1.37% |
| Cc1cc2ccccc2n1CCNC(=O)c1cccc(C(F)(F)F)c1 | -4.81% |
| O=C1C(NS(=O)(=O)c2ccccc2)=C(N2CCOCC2)C(=O)c2ccccc21 | 7.92% |
| Cc1cc(O)c(C2=NCCSC(c3cccc(O)c3)C2)c(=O)o1 (stereo not drawn) | 2.94% |
| Cc1cccc(NC(=O)CN2CC(c3ccccc3)CC2=O)c1C (stereo not drawn) | 1.15% |
| CC1CCN(C(=O)Cn2ncc3c(Cl)cccc32)CC1 | 3.65% |
| O=C(CSc1nc2ccc(N3C(=O)c4ccccc4C3=O)cc2s1)NC1CC1 | 1.37% |
| COc1ccc(OC)c(N(CC(=O)Nc2ccc(Cl)cc2)S(C)(=O)=O)c1 | 0.324% |
| O=C1NC(NS(=O)(=O)c2ccc(Cl)cc2)(C(F)(F)F)C(=O)N1Cc1cccnc1 (stereo not drawn) | -2.63% |

| Structure (SMILES) | % Inhibition @ 10 uM |
| --- | --- |
| Cc1ccc(CNC(=O)CCc2ccc(S(=O)(=O)NC3CCCCC3)cc2)cc1 | 1.1% |
| CCC1=NN(C(=O)c2cccnc2)C(O)(c2ccccc2)C1 (stereo not drawn) | 1.96% |
| C=CCN1C(=O)N/C(=C/c2ccc(C(C)C)cc2)C1=O | 2.98% |
| O=C(O)c1c(F)c(F)c(F)c(F)c1-c1ccc(Cl)cc1 | -3.41% |
| COc1ccc(S(=O)(=O)Nc2ccc(Cl)cc2)cc1 | 0.135% |
| O=c1/c(=C/c2ccc(-c3ccc(F)cc3)o2)sc2nc(-c3ccco3)nn12 | -3.64% |
| COc1ccccc1N1CCN(C(=O)c2ccccc2C)CC1 | 1.35% |
| CCNC(=O)/C(C#N)=C/c1c(Oc2cc(C)ccc2C(C)C)nc2ccccn2c1=O | 75.9% |
| CC(NC(=O)c1cc2c(=O)n3ccccc3nc2n(CC2CCCO2)c1=N)c1ccccc1 (stereo not drawn) | -1.47% |
| O=C(CN1C(=O)CSc2ncccc21)NCc1cccnc1 | 1.03% |
| O=C(Nc1nn2c(-c3ccco3)nnc2s1)C1CCCCC1 | -0.0652% |
| Cc1ccc(-n2cc(-c3ccccc3)c3c(NCCCN4CCCC4=O)ncnc32)cc1 | 5.69% |
| CCOC(=O)c1nnn(-c2nonc2N)c1-c1cccs1 | 4.84% |
| COc1ccc(NC(=O)CN(c2ccc(C)cc2)S(C)(=O)=O)cc1Cl | -20.8% |
| Cc1cc(C)cc(NC(=O)c2cccc([N+](=O)[O-])c2)c1 | 2.22% |
| Cc1nc(Oc2ccccc2)c2ccccc2n1 | -0.872% |
| O=C(O)Cc1ccc(O)cc1 | 0.565% |
| CC1CCc2c(sc3ncnc(N4CCOCC4)c23)C1 (stereo not drawn) | 8.47% |
| Cc1nnc(N2CCOCC2)c2ccccc12 | -7.07% |
| O=C(CC(C(=O)O)c1ccccc1)Nc1ccccc1 (stereo not drawn) | -0.95% |
| CCCc1c(C)nc2c(C(=O)OC)cnn2c1O | -3.94% |
| O=C(CN1C(=O)S/C(=C/c2cccs2)C1=O)N1CCOCC1 | -3.04% |
| CNC(=O)CN(c1ccc(C)cc1)S(=O)(=O)c1ccc(OC)c(OC)c1 | 0.324% |
| COc1ccc(S(=O)(=O)Nc2ccc(Br)cc2)cc1 | -2.6% |
| COc1ccccc1/C=C1\C(=O)NC(=S)N(c2ccccc2OC)C1=O | 0.912% |
| S=C(CN1CCCC1=S)NCCc1ccccc1 | -0.424% |

| Structure (SMILES) | % Inhibition @ 10 uM |
| --- | --- |
| O=C(CSc1nnc(-c2ccccc2)n1-c1ccccc1)N1CCN(C(=O)c2ccccc2)CC1 | 2.18% |
| O=C1N=C(c2ccccc2)S/C1=C\c1ccc2c(c1)OCO2 | 0.884% |
| COc1cc(C(=O)Nc2sc(Cc3ccccc3)c(C)c2C(N)=O)cc(OC)c1OC | 2.27% |
| O=C(c1ccccc1)N1CCN(CC(O)COc2ccc3ccccc3c2Br)CC1 (stereo not drawn) | -5.48% |
| Cc1ccc2[nH]cc(CCNC(=O)C3CCCNC3=O)c2c1 (stereo not drawn) | -5.38% |
| COc1ccc(CCNC(=O)C2C3C=CC(C3)C2C(=O)O)cc1OC (stereo not drawn) | 8.69% |
| Cc1ccc2ncc(S(=O)(=O)c3ccc(Cl)cc3)c(N3CCOCC3)c2c1 | -4.51% |
| COCCNC(=O)c1nc(-c2cccnc2)no1 | -0.495% |
| Cc1cccc(Oc2nc3ccccn3c(=O)c2/C=C(\C#N)S(=O)(=O)c2ccc(Cl)cc2)c1C | -5.1% |
| COCCN1C(=O)c2ccccc2C(C(=O)NCCc2ccsc2)C1c1cccs1 (stereo not drawn) | -1.98% |
| Fc1ccc(N2CCN(Cc3cn4ccccc4n3)CC2)cc1 | 4.68% |
| Cc1ccnc(NC(=O)C2CCCN(c3ncnc4c3nc3n4CCCCC3)C2)c1 (stereo not drawn) | -1.46% |
| Cc1cccc(OCC(=O)N2CCN(C(=O)CCC3CCCC3)CC2)c1 | -1.6% |
| COc1cc(-c2nnc3s/c(=C\c4ccco4)c(=O)n23)cc(OC)c1OC | 11.2% |
| COc1ccc(OC)c(NS(=O)(=O)c2ccc(OC)c(Cl)c2Cl)c1 | -3.29% |
| CCOC(=O)N1CCN(C(=O)CSc2nnc(-c3ccc(OC)cc3)o2)CC1 | 2.97% |
| Cn1c(C(=O)O)c(CC(=O)Nc2cnc3ccccc3c2)c2ccccc21 | 2.84% |
| COC(=O)c1cc(S(=O)(=O)NCc2cccs2)c[nH]1 | 4.92% |
| COc1ccc(C2C3=C(O)CCCC3=NC(C)=C2C(=O)Nc2ccc(Br)cn2)cc1 (stereo not drawn) | -0.522% |
| Cc1ccccc1OCCOCCN1CCN(C)CC1 | -5.54% |
| N#CCCN(C1CCCCC1)S(=O)(=O)c1ccc(Cl)cc1 | -4.96% |
| Cc1scc(CN2CCN(Cc3ccccc3)CC2)c1C | 6.4% |
| CC(C)CN1C(=O)c2ccccc2C(C(=O)NC(C)C)C1c1cccs1 (stereo not drawn) | 1.97% |
| Cn1cc(NC(=O)NCCc2ccc(Cl)cc2)c2ccccc2c1=O | 3.45% |
| CC(C)CN1C(=O)c2ccc(C(=O)NC3CCCCC3)cc2C1=O | -8.92% |
| CCOc1cc(C2C3=C(CC(C)(C)CC3=O)OC3=C2C(=O)CC(C)(C)C3)cc(Br)c1O | -6.65% |

| Structure (SMILES) | % Inhibition @ 10 uM |
| --- | --- |
| CC(C)CC(C(=O)NCC#N)c1cccc(-c2ccc(-c3csc(N(C)C)n3)cc2)c1 (stereo not drawn) | -4.72% |
| N=c1n(CC(N)=O)c2ccccc2n1Cc1ccc(Cl)c(Cl)c1 | -5.3% |
| Cc1cc(NC(=O)CN(c2cccc(C)c2C)S(C)(=O)=O)ccc1Br | -0.48% |
| CNC(=O)c1ccc(C(=O)N(C(C)C)C(C)C)cc1 | 3.74% |
| O=C(Nc1cccc(Cl)c1)c1cccc(NC(=O)c2cccs2)c1 | -4.43% |
| CCN1CCCC1CNS(=O)(=O)c1cc(-c2onc(C)c2C)ccc1OC (stereo not drawn) | -1.95% |
| O=C(Nc1sc2c(c1C(=O)NCCc1ccccc1)CCC2)c1cc(=O)c2cc(Cl)ccc2o1 | -3.24% |
| CCOc1ccc(C(=O)Nc2ccc(F)c(Cl)c2)cc1 | 2.65% |
| O=C(NCCc1ccncc1)Nc1ccc(Cl)c(Cl)c1 | -12.7% |
| CC1SC2(NC1=O)C1CC3CC(C1)CC2C3 (stereo not drawn) | -1.08% |
| CCCCC1CCC(C(=O)N(Cc2sccc2C)C2CCS(=O)(=O)C2)CC1 (stereo not drawn) | 3.77% |
| Cc1onc(-c2ccccc2Cl)c1C(=O)N1C(C)CCCC1C (stereo not drawn) | -6.36% |
| O=C1C(c2ccc(Cl)cc2)N(Cc2ccc3c(c2)OCO3)C(=O)CN1C1CCCCC1 (stereo not drawn) | 2.9% |
| CC(=O)Nc1ccc(NC(=O)c2oc3ccc(C)cc3c2C)cc1 | 2.43% |
| CCOc1ccccc1C1C2=C(O)CCCC2=NC(C)=C1C(=O)Nc1ccccc1C (stereo not drawn) | 2.51% |
| CC(=O)c1ccc(N2CN=c3s/c(=C\c4ccco4)c(=O)n3C2)cc1 | -3.63% |
| Cc1c(NC(=O)N2CCC3(CC2)OCCO3)sc2nc3n(c(=O)c12)CCC(C)CC3 (stereo not drawn) | 6.35% |
| Cc1cc2ncn(C(=O)Cc3ccc(F)cc3)c2cc1C | -1.33% |
| CN(C)c1ccc(NC(=O)C2C3C=CC(C3)C2C(=O)O)cc1 (stereo not drawn) | -8.46% |
| O=C(NCc1ccccc1)C(Cc1ccccc1)NS(=O)(=O)c1ccc(Br)cc1 (stereo not drawn) | -0.406% |
| O=C(N/C(=C\c1ccco1)C(=O)N1CCOCC1)c1cccc(Br)c1 | -2.88% |
| O=C(O)c1ccc(-c2ccccc2)s1 | 2.84% |
| CC(C)CCn1c(CN2CCCCC2)nc2c1c(=O)n(C)c(=O)n2C | 1.79% |
| Cc1nc(SCC(=O)Nc2ccccc2)c(C#N)c(C)c1C | 0.76% |
